PubChem BioAssay AID504333 (National Center for Advancing Translational Sciences (NCATS), 2011)
Values joined by “and” are separate entries in the source; they are usually repeats but may differ in a detail not shown here. Identical values can stand only once. Screen size: about 360,000 compounds; about 16,000 (4.4%) were called active. The inconclusive results got no clear call from the source; some entries with a clear call stand among them for comparison. Calls come from the whole dose curve; as a rule, active = well fitted inhibition curve with a large enough effect; inconclusive = small, poorly fitted or top-dose-only effect; inactive = no such curve, though single readings can be large or run the other way. A potency beside an inconclusive call is a rough fit, not a confirmed value.

target: Bromodomain adjacent to zinc finger domain protein 2B (Homo sapiens) (UniProt Q9UIF8); assay: qHTS Assay for Inhibitors of BAZ2B; details: AlphaScreen BAZ2B-H3K14Ac peptide displacement; activity change, negative = inhibition: at 114 µM (top of the series); note: nearly all actives have a fitted effect of over 60% in size
Procedure, shortened: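 Compounds, titrated to a top concentration of 110 uM, were incubated 30 min at room temperature with preformed BAZ2B/acetyl-K14 H3 peptide complex (50 nM each). Proximity signal was measured by AlphaScreen after 20 min with beads.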
% is set by controls: 0 for no effect and ±100 for the full control effect; potency is the fitted concentration of half-maximal effect; tags give direction and shape of the fitted curve.

Chain of UniProt Q9UIF8 (Q9UIF8 whole entry, looked up, the tested form may be a part): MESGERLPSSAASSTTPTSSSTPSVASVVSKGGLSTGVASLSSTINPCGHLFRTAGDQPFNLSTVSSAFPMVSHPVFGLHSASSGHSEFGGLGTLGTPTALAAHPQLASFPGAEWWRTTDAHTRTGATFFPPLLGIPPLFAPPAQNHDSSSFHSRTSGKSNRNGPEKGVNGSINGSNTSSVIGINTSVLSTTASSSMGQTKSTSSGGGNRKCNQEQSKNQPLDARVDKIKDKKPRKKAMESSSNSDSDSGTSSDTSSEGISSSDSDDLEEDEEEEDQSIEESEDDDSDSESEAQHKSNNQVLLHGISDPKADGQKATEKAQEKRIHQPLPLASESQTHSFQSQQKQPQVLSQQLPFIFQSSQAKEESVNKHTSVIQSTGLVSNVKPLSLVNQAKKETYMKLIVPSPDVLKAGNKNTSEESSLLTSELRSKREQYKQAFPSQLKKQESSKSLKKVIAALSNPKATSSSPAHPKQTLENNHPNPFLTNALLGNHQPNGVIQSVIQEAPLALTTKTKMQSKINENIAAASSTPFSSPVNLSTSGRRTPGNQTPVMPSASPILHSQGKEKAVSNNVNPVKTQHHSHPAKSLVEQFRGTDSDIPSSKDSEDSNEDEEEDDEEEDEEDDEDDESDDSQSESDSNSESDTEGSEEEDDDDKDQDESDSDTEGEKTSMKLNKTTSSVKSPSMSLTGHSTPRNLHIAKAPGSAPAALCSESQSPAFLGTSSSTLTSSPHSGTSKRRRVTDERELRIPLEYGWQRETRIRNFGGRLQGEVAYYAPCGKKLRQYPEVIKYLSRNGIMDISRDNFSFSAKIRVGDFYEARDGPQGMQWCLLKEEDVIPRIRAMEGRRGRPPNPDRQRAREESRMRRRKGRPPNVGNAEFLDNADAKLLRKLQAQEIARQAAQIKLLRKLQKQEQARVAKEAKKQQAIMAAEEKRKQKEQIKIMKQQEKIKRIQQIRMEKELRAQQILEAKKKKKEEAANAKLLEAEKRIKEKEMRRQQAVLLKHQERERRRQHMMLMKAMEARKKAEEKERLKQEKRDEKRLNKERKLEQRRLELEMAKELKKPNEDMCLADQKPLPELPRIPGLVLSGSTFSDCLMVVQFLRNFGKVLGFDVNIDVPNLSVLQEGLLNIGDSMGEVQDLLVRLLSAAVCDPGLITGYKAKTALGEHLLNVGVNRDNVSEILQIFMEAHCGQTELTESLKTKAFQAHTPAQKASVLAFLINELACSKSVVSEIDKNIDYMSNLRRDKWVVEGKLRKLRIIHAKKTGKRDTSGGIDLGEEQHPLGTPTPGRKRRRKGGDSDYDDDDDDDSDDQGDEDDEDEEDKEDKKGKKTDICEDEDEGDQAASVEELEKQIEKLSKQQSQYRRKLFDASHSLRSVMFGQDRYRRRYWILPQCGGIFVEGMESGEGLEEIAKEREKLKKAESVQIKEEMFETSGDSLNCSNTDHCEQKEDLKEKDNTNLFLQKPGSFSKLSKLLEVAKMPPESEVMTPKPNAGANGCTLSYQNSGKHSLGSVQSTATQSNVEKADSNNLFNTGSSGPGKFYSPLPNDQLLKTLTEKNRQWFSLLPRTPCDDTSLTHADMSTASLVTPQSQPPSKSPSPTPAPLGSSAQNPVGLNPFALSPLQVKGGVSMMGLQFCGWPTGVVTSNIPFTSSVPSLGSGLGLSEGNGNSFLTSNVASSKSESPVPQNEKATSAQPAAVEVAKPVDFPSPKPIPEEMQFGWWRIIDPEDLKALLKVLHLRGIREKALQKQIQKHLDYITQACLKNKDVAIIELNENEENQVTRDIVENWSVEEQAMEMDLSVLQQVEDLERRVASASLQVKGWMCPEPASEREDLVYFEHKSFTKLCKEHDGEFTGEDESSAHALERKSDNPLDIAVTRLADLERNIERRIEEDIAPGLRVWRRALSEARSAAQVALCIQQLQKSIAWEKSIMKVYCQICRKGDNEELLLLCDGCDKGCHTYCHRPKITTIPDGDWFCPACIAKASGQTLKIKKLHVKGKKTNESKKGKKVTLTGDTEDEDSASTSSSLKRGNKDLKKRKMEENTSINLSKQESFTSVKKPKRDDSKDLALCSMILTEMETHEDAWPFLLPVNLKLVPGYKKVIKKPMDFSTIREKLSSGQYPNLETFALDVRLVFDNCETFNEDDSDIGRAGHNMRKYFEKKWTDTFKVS

| Structure (SMILES) | Potency | activity change, negative = inhibition |
| --- | --- | --- |
| COc1ccc(-n2nc3c(N4CCC(C(=O)NCc5ccccc5C)CC4)nnc(C)c3c2C)cc1 | inconclusive: 89.1 µM [inhibitor, single point] and inconclusive: 63.1 µM [inhibitor, partial curve, poor fit] | – |
| COc1ccc(OC)c(CCNC(=O)CCCn2c(=O)c3cccn3c3ccc(F)cc32)c1 | – | inactive: 2.88% |
| O=C(NCc1ccco1)c1ccccc1Nc1ccc(F)cc1 | inconclusive: 44.7 µM [inhibitor, partial curve] | – |
| O=C(c1ccc(N2CCOCC2)cc1)N1CCCC(Nc2ccccc2)C1 (stereo unspecified) | – | inactive: -8.61% |
| COCCN(CCOC)C(=O)c1ccc(NS(=O)(=O)c2ccc3[nH]c(=O)[nH]c3c2)cc1 | inconclusive: 89.1 µM [inhibitor, single point] | – |
| CCOCCCn1cnc2c(c1=O)c1nc3ccccc3nc1n2-c1ccc(C)cc1 | inconclusive: 89.1 µM [inhibitor, single point] | – |
| Clc1ccc(Oc2cnns2)cc1Cl | – | inactive: 12.1% |
| CCOC(=O)C1CCCN(C(=S)Nc2ccc(OC)cc2)C1 (stereo unspecified) | – | inactive: 2.65% |
| COc1cccc(C2C(C#N)=C(N)Oc3cc(C)n(Cc4ccccn4)c(=O)c32)c1OC (stereo unspecified) | – | inactive: 5.9% |
| CC(=O)c1ccc(S(=O)(=O)N2CCn3cccc3C2c2ccc(C)cc2)cc1 (stereo unspecified) | inconclusive: 79.4 µM [inhibitor, single point] | – |
| COc1cc(C(=O)Nc2ccc(Nc3ccccc3)cc2)cc(OC)c1OC | inconclusive: 44.7 µM [inhibitor, partial curve] | – |
| CCc1c(C(=O)OCc2ccccc2)[nH]c(C)c1C | inconclusive: 79.4 µM [inhibitor, single point] | – |
| Cc1ccccc1Nc1c(-c2ccccn2)nc2c(C)cccn12 | active: 14.1 µM | – |
| O=Cc1ccc(-c2ccc(Cl)cc2Cl)[nH]1 | inconclusive: 89.1 µM [inhibitor, single point] | – |
| O=C1/C(=C/C=C/c2ccco2)SC(=S)N1NS(=O)(=O)c1ccccc1 | active: 7.08 µM | – |
| COc1ccccc1-c1cc(C(=O)N2CCN(S(=O)(=O)c3ccc(C)cc3)CC2)[nH]n1 | – | inactive: 1.52% |
| COc1ccc(OC)c(CN2CCC(Cc3ccccc3)CC2)c1 | active: 56.2 µM | – |
| Cn1c(=O)n(C)c2cc(NS(=O)(=O)c3cccs3)ccc21 | inconclusive: 89.1 µM [inhibitor, single point] | – |
| Fc1ccc(N2CCN(C3CCC(c4ccccc4)CC3)CC2)cc1 (stereo unspecified) | inconclusive: 39.8 µM [inhibitor, partial curve] | – |
| COc1ccc(CNC(=O)Cc2c(C)c3cc4c(C)coc4c(C)c3oc2=O)cc1 | – | inactive: -2.64% |
| O=C(O)Cc1ccc(N=Nc2c(O)c(C(=O)O)cc3ccccc23)cc1 | active: 28.2 µM | – |
| O=C(NCc1ccco1)c1ccc2c(c1)C(=O)c1ccccc1-2 | – | inactive: -29.7% |
| COc1ccc(CNC(=O)CN2C(=O)C(C)N(c3ccc(C)cc3)C2=O)cc1 (stereo unspecified) | inconclusive: 5.62 µM [inhibitor, full curve] | – |

| Structure (SMILES) | Potency | activity change, negative = inhibition |
| --- | --- | --- |
| COc1cc(NC(=O)COC(=O)CNC(=O)c2cc(C)cc(C)c2)c(C)cc1[N+](=O)[O-] | inconclusive: 89.1 µM [inhibitor, single point] | – |
| COc1ccc(C(=O)NC(=S)Nc2ccc(CN3CCCCC3)cc2)cc1Cl | inconclusive: 50.1 µM [inhibitor, partial curve] | – |
| Cc1ccc(NC(=O)CSc2nnc(Cc3csc(C)n3)o2)cc1 | inconclusive: 79.4 µM [inhibitor, single point] | – |
| S=C(NNc1cccc(Cl)c1)NC1CCCCC1 | active: 35.5 µM | – |
| CC1=CC(c2ccc(Cl)cc2)n2nc(NC(=O)c3ccccc3)nc2N1 (stereo unspecified) | active: 56.2 µM | – |
| COc1ccc(S(=O)(=O)N(C)c2ccc(C(=O)NCc3ccccn3)cc2)cc1 | – | inactive: -2.04% |
| Cc1ccc(CN2CCSc3ccc(C(=O)N4CCN(c5ccccc5)CC4)cc32)cc1 | – | inactive: -16.2% |
| COc1ccccc1Nc1nc(N)nc(CN2CCCCCC2)n1 | active: 12.6 µM | – |
| Cc1cccc(N2CCN(c3ccc(NC(=O)/C=C(/C(=O)O)c4ccccc4)cc3)CC2)c1 | inconclusive: 22.4 µM [inhibitor, single point] | – |
| Cc1ccc(S(=O)(=O)N/N=C\c2cn(CC(N)=O)c3ccccc23)cc1C | inconclusive: 79.4 µM [inhibitor, single point] | – |
| Cc1ccccc1OCc1nc2ccccc2c(=O)n1/N=C/c1ccco1 | – | inactive: -30.2% |
| CC1CCC(NCC(=O)Nc2cccc(S(N)(=O)=O)c2)CC1 (stereo unspecified) | active: 79.4 µM | – |
| CC(C)(C)c1ccc(NC(=O)C2CCCN(c3cnccn3)C2)cc1 (stereo unspecified) | inconclusive: 50.1 µM [inhibitor, partial curve] and inconclusive: 44.7 µM [inhibitor, partial curve] | – |
| COCCCn1c(=O)c2ccccc2n(CC(=O)N2CCCc3ccccc32)c1=O | inconclusive: 89.1 µM [inhibitor, single point] | – |
| CCOc1ccc(N2CC(NC(=O)CCc3ccccc3)CC2=O)cc1 (stereo unspecified) | – | inactive: 1.35% |
| Cc1ccccc1-c1nc(CN2CCC(C(=O)NCc3ccccc3Cl)CC2)c(C)o1 | inconclusive: 20 µM [inhibitor, full curve] | – |
| O=C(Nc1cccc(F)c1)C1CCCN(S(=O)(=O)c2cnc[nH]2)C1 (stereo unspecified) | – | inactive: -4.25% |
| COc1ccc2nc(C)c(C(=O)NN)cc2c1 | inconclusive: 89.1 µM [inhibitor, single point] | – |
| CC1CCCN(CCCNC(=O)c2ccc3c(c2)N(Cc2ccccc2F)C(=O)c2ccccc2S3(=O)=O)C1 (stereo unspecified) | inconclusive: 89.1 µM [inhibitor, single point] and inconclusive: 100 µM [inhibitor, single point] | – |
| Oc1c(CN2CCCCC2)cc(Br)c2cccnc12 | active: 28.2 µM | – |
| Nc1n[nH]c(N)c1N=Nc1ccc(F)cc1 | inconclusive: 79.4 µM [inhibitor, single point] | – |
| Cc1ccc(-c2nn3nnnc3c3ccccc23)cc1C | inconclusive: 89.1 µM [inhibitor, single point] | – |
| COc1cc(C(=O)Oc2c(Sc3ccccc3)c(C)nn2-c2ccccc2)cc(OC)c1OC | – | inactive: -24.6% |
